# Measured values as given in paper PMC4336329 (PLoS ONE, 2015).
# The whole screen tested about 310,000 compounds, of which about 2,200 (0.71%) showed an effect of 50% or more. Effects have a minus sign here. Some of the results follow.
# Molecular target: human ether-à-go-go-related gene (hERG) potassium channel (human, UniProt Q12809)
# Assay: primary screen, population patch clamp on CHO cells stably expressing hERG
# Sequence of human ether-à-go-go-related gene (hERG) potassium channel (Q12809 whole entry, looked up): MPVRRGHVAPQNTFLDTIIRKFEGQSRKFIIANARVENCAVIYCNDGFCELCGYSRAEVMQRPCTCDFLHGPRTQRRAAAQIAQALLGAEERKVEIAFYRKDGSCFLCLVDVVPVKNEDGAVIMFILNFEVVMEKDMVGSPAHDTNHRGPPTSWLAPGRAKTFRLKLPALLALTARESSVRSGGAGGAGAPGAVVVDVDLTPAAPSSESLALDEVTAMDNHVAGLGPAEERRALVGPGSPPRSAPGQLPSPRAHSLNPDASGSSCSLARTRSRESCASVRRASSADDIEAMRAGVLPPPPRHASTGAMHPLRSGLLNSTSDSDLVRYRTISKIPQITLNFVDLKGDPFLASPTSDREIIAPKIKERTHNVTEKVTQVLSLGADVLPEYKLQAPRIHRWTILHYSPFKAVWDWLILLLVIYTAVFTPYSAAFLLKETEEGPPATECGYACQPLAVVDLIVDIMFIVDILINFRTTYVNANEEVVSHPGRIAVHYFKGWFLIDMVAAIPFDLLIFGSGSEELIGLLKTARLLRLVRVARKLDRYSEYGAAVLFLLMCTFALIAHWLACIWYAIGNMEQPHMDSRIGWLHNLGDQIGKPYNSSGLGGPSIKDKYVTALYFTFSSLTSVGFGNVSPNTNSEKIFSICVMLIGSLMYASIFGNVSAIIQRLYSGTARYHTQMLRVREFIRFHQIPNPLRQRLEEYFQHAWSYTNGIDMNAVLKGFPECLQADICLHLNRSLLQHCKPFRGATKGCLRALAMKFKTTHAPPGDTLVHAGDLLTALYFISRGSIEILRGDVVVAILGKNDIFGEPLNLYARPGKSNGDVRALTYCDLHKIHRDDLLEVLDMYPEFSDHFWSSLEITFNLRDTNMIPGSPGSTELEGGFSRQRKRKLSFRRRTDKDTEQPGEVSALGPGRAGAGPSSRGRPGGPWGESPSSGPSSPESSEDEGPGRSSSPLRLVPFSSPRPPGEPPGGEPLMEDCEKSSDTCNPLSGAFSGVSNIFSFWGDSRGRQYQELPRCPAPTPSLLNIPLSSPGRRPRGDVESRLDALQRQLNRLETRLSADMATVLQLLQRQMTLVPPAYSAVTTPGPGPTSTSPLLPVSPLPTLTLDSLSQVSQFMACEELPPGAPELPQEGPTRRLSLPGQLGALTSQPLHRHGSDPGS
row,Compound,"hERG current change (%, negative = inhibition) at 1uM"
1,O=C(Cc1ccccc1)Nc1ccnn1C1CCN(Cc2nccs2)CC1,9.91%
2,C(=N/Nc1cc(N2CCOCC2)nc(N2CCOCC2)n1)/c1ccccc1,-7.51%
3,COc1ccccc1CNC(=O)CSc1nc(N)c(C#N)c(-c2cccs2)c1C#N,7.57%
4,Cn1cnc(S(=O)(=O)Nc2ccc3c(c2)OCCO3)c1,12.7%
5,COc1ccc(-c2noc(C(C)NS(=O)(=O)c3ccc(NC(C)=O)cc3)n2)cc1 (centres unmarked),15.7%
6,Cl.O=C(COc1ccc(Cl)cc1)NC1CN2CCC1CC2 (centres unmarked),-10.3%
7,CCOc1ccc(S(=O)(=O)NCCC(=O)NCCc2ccc(C(C)C)cc2)cc1,13.9%
8,CC(C)CNC(=O)C1CCN(c2ccc(S(=O)(=O)N3CCOCC3)cc2Cl)CC1,-3.2%
9,Cc1cc(C)n(-c2ccc(N3CCOCC3)nn2)n1,12.2%
10,Cc1ccccc1NC(=O)CC1(c2ccc(N(C)C)cc2)C(=O)c2ccccc2C1=O,10.3%
11,O=C(COC(=O)COc1ccc(Nc2ccccc2)cc1)NCc1ccco1,14.5%
12,O=C(/C=C/c1ccco1)Nc1ccc(N2CCCC2)cc1,12.4%
13,C=CCn1cc(C(=O)N2CCN(c3ccccc3)CC2)c(=O)c2cc(S(=O)(=O)N3CCCC3)ccc21,18.7%
14,CC(=O)c1cccc(NC(=O)c2cnccn2)c1,6.01%
15,CCCc1nc(SCC(=O)N2CCC(Cc3ccccc3)CC2)c2c(=O)n(C)c(=O)n(C)c2n1,2.07%
16,Cc1ccc(Cn2ncc3c(N4CCN(CCc5ccccc5)CC4)ncnc32)cc1,5.95%
17,CC(=O)Oc1cccc(Nc2ncnc3ccccc23)c1,10.7%
18,CN1CCN(c2cc(N3CCc4ccccc4C3)c(F)cc2[N+](=O)[O-])CC1,3.61%
19,N#Cc1c(NC(=O)c2cc([N+](=O)[O-])ccc2N2CCOCC2)sc2c1CCCC2,7.82%
20,CCNc1nc(NC(C)C)nc(OCCNS(=O)(=O)c2cc(C)ccc2C)n1,-9.05%
21,CCOC(=O)N1CCC(N2Cc3cccc(C(=O)N4CCN(C5CCCCC5)CC4)c3C2=O)CC1,-32.6%
22,Cc1cc2nc(CN(C)Cc3c(C(=O)N(C)C)nc4ccc(Cl)cn34)[nH]c2cc1C,-7.56%
23,COc1cc(NC(=O)CSc2nncn2C)c(C)cc1[N+](=O)[O-],19.9%
